Results are given in words; binding and its absence hold for the method and conditions named. Binding seen in cells or lysates may run through a third protein. Some binding calls cover weakened binding; strength is not graded here. For some assays here: Tags and fused reporters may be left off the sequences shown. Blank lines part the entries; values can stand above or below the molecule they belong to.
What was measured:
[1] = target: T1, Flag-tagged GPR108 (mouse) (UniProt Q91WD0); assay: co-IP; HEK293 or HEK293T cells co-transfected with Flag- and HA-tagged proteins; lysis buffer 10 mM Tris pH 7.4, 100 mM NaCl, 1 mM EDTA, 1 mM EGTA, 1% Triton X-100, 10% glycerol, 0.1% SDS, 0.5% deoxycholate; anti-flag M2 agarose 2 h at 4°C; blots with anti-HA and anti-Flag (Fig 6A: cells stimulated with LPS for different times, with or without GPR108, blot with anti-MyD88)
T1 sequence: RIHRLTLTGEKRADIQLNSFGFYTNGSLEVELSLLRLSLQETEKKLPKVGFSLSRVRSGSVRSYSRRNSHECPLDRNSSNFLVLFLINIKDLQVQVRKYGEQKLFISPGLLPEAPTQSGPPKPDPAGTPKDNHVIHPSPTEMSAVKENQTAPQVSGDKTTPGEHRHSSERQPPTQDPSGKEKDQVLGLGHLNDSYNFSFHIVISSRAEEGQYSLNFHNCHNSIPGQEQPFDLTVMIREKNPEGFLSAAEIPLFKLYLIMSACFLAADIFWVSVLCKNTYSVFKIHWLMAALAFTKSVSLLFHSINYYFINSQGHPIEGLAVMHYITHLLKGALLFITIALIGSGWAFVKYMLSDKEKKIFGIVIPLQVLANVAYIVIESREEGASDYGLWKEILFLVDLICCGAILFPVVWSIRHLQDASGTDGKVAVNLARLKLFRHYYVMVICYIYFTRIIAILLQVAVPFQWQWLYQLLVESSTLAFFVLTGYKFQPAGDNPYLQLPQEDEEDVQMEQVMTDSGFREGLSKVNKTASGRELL

Sequences of proteins named here, by UniProt entry; tags and fusion partners are left off. Residues count along the entry.
UniProt Q9QUK6, residues 26-835: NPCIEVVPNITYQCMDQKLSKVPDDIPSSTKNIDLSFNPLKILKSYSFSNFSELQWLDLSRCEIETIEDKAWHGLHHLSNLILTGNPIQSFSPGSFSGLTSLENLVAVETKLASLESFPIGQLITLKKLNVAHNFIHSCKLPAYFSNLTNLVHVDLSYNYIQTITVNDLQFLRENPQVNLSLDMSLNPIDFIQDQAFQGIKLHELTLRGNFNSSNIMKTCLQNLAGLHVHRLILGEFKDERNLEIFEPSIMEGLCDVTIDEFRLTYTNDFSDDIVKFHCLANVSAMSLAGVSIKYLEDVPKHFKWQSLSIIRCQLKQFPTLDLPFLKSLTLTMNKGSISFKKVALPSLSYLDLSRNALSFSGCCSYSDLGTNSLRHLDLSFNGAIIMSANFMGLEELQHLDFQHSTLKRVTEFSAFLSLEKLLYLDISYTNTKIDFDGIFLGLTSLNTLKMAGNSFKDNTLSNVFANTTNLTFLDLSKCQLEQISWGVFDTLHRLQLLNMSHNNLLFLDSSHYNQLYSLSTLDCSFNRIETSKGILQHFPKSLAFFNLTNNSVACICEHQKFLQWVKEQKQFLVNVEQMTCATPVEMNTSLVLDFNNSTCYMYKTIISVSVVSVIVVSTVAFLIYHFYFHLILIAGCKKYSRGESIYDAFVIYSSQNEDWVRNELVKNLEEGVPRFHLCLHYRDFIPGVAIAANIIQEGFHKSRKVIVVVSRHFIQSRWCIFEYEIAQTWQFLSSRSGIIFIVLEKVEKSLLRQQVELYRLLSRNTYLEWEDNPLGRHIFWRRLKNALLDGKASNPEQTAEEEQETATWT
UniProt Q99JY1: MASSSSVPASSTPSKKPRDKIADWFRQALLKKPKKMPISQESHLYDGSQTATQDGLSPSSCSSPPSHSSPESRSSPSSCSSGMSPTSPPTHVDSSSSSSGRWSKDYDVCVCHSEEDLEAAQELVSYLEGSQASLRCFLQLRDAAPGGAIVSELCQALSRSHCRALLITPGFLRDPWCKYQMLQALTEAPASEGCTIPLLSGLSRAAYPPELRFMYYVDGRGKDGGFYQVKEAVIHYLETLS
UniProt P22366: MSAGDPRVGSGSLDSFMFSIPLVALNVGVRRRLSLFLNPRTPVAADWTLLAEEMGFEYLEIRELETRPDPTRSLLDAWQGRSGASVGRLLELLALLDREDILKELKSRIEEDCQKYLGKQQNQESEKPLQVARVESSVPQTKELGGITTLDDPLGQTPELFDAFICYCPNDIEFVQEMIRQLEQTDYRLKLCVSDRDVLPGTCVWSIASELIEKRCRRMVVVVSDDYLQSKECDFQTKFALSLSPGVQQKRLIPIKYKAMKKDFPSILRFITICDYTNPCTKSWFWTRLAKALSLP
UniProt Q99MB1, residues 26-905: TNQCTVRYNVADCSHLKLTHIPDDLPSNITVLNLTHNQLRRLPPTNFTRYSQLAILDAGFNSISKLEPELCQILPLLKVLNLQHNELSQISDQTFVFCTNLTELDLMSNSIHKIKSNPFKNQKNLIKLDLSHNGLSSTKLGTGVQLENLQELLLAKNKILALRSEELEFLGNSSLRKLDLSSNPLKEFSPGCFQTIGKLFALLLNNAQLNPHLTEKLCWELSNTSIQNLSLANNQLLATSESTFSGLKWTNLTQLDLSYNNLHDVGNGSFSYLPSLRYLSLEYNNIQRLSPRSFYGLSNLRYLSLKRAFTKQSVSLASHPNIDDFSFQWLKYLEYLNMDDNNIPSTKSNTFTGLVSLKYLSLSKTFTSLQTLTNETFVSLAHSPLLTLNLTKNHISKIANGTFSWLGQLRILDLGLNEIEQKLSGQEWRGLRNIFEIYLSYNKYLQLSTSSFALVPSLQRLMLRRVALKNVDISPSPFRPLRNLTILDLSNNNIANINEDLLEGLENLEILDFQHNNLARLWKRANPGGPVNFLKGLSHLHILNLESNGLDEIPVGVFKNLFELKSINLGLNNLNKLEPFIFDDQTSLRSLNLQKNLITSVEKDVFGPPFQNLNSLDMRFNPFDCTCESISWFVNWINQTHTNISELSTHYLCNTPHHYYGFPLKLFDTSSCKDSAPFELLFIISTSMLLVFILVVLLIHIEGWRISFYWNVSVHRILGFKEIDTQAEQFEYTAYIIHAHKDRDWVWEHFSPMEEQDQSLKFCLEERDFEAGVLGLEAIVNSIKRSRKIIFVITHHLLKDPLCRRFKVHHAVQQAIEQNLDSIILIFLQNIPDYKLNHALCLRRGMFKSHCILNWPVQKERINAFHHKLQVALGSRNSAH

[2] = target: Flag-tagged TLR4 (mouse) (UniProt Q9QUK6); assay: as above

binding [1]: binds
Molecule: HA-tagged TIRAP (from UniProt Q99JY1 1-241)

binding [1]: binds | binding [2]: binds
Molecule: HA-tagged MyD88 (from UniProt P22366 1-296)

binding [1]: binds
Molecule: HA-tagged TLR3 (from UniProt Q99MB1 26-905) (receptor)

binding [1]: binds
Molecule: HA-tagged TLR4 (from UniProt Q9QUK6 26-835) (receptor)

binding [1]: no binding
B1: LRSAM1 (protein, UniProt Q80ZI6 1-727)
chain: MPLFFRKRKPSEEARKRLEYQMCLAKEAGADDILDISKCELSEIPFGAFATCKVLQKKVLIVHTNHLTSLLPKSCSLLSLVTIKVLDLHENQLTALPDDMGQLTVLQVLNVERNQLTHLPRSIGNLLQLQTLNVKDNKLKELPDTLGELRSLRTLDISENEIQRLPQMLAHVRTLETLSLNALAMVYPPPEVCGAGTAAVQQFLCKESGLDYYPPSQYLLPVLEQDGAENTQDSPDGPASRFSREEAEWQNRFSDYEKRKEQKMLEKLEFERRLDLGQREHAELLQQSHSHKDEILQTVKQEQTRLEQDLSERQRCLDAERQQLQEQLKQTEQSIASRIQRLLQDNQRQKKSSEILKSLENERIRMEQLMSITQEETENLRQREIAAAMQQMLTESCKSRLIQMAYESQRQSLAQQACSSMAEMDKRFQQILSWQQMDQNKAISQILQESVMQKAAFEALQVKKDLMHRQIRNQIRLIETELLQLTQLELKRKSLDTETLQEMVSEQRWALSNLLQQLLKEKKQREEELHGILAELEAKSETKQENYWLIQYQRLLNQKPLSLKLQEEGMERRLVALLVELSAEHYLPLFAHHRISLDMLSRMSPGDLAKVGVSEAGLQHEILRRAQDLLAVPRVQPELKPLENEVLGALEPPTAPRELQESVRPSAPPAELDMPTSECVVCLEREAQMVFLTCGHVCCCQQCCQPLRTCPLCRQEISQRLRIYHSS

binding [1]: binds
B2: HA-tagged TLR7 (receptor, UniProt P58681 27-1050)
chain: FRWFPKTLPCEVKVNIPEAHVIVDCTDKHLTEIPEGIPTNTTNLTLTINHIPSISPDSFRRLNHLEEIDLRCNCVPVLLGSKANVCTKRLQIRPGSFSGLSDLKALYLDGNQLLEIPQDLPSSLHLLSLEANNIFSITKENLTELVNIETLYLGQNCYYRNPCNVSYSIEKDAFLVMRNLKVLSLKDNNVTAVPTTLPPNLLELYLYNNIIKKIQENDFNNLNELQVLDLSGNCPRCYNVPYPCTPCENNSPLQIHDNAFNSLTELKVLRLHSNSLQHVPPTWFKNMRNLQELDLSQNYLAREIEEAKFLHFLPNLVELDFSFNYELQVYHASITLPHSLSSLENLKILRVKGYVFKELKNSSLSVLHKLPRLEVLDLGTNFIKIADLNIFKHFENLKLIDLSVNKISPSEESREVGFCPNAQTSVDRHGPQVLEALHYFRYDEYARSCRFKNKEPPSFLPLNADCHIYGQTLDLSRNNIFFIKPSDFQHLSFLKCLNLSGNTIGQTLNGSELWPLRELRYLDFSNNRLDLLYSTAFEELQSLEVLDLSSNSHYFQAEGITHMLNFTKKLRLLDKLMMNDNDISTSASRTMESDSLRILEFRGNHLDVLWRAGDNRYLDFFKNLFNLEVLDISRNSLNSLPPEVFEGMPPNLKNLSLAKNGLKSFFWDRLQLLKHLEILDLSHNQLTKVPERLANCSKSLTTLILKHNQIRQLTKYFLEDALQLRYLDISSNKIQVIQKTSFPENVLNNLEMLVLHHNRFLCNCDAVWFVWWVNHTDVTIPYLATDVTCVGPGAHKGQSVISLDLYTCELDLTNLILFSVSISSVLFLMVVMTTSHLFFWDMWYIYYFWKAKIKGYQHLQSMESCYDAFIVYDTKNSAVTEWVLQELVAKLEDPREKHFNLCLEERDWLPGQPVLENLSQSIQLSKKTVFVMTQKYAKTESFKMAFYLSHQRLLDEKVDVIILIFLEKPLQKSKFLQLRKRLCRSSVLEWPANPQAHPYFWQCLKNALTTDNHVAYSQMFKETV

binding [1]: binds
B3: HA-tagged TRAF6 (enzyme, UniProt P70196 1-530)
chain: MSLLNCENSCGSSQSSSDCCAAMAASCSAAVKDDSVSGSASTGNLSSSFMEEIQGYDVEFDPPLESKYECPICLMALREAVQTPCGHRFCKACIIKSIRDAGHKCPVDNEILLENQLFPDNFAKREILSLTVKCPNKGCLQKMELRHLEDHQVHCEFALVNCPQCQRPFQKCQVNTHIIEDCPRRQVSCVNCAVSMAYEEKEIHDQSCPLANIICEYCGTILIREQMPNHYDLDCPTAPIPCTFSVFGCHEKMQRNHLARHLQENTQLHMRLLAQAVHNVNLALRPCDAASPSRGCRPEDPNYEETIKQLESRLVRQDHQIRELTAKMETQSMYVGELKRTIRTLEDKVAEMEAQQCNGIYIWKIGNFGMHLKSQEEERPVVIHSPGFYTGRPGYKLCMRLHLQLPTAQRCANYISLFVHTMQGEYDSHLPWPFQGTIRLTILDQSEALIRQNHEEVMDAKPELLAFQRPTIPRNPKGFGYVTFMHLEALRQGTFIKDDTLLVRCEVSTRFDMGGLRKEGFQPRSTDAGV

From PMC6192633
